According to PubChem BioAssay AID662 (National Center for Advancing Translational Sciences (NCATS), 2007):
In all, about 71,000 compounds went through this assay and about 1,800 (2.5%) were called active. Inconclusive means that the source gave no clear call. Such entries were picked first, then a sample of the others. Calls follow the shape of the dose curve; as a rule, active = well fitted activation curve with a large enough effect in the signal ratio, with a control signal flat (not every such curve was filed as active); inconclusive = small, poorly fitted or top-dose-only effect, or effect the other way, or a change in a side signal; inactive = flat fitted curve, though single readings scatter; the % refers to the signal ratio. Potencies of inconclusive entries are doubtful fits and often do not repeat.

experiment: Cell signaling CRE-BLA (Fsk stim); details: CHO CRE-bla reporter (cAMP response element driving beta-lactamase), forskolin EC10, beta-lactamase ratio; activity change, negative = inhibition: at 38.2 µM (top of the series) unless noted; as to activity change, negative = inhibition: % of control where 0% means no effect
Outline: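 Reporter-gene assay: CHO cells with beta-lactamase behind cAMP responsive elements, co-treated with compound and EC10 NKH 477 for 3 hours at 37 degrees Celsius. Activity came from the 460/530 nm CCF4 emission ratio.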
Potency is read from the fitted curve at half-maximal effect; tags tell the direction and shape of the fitted curve.

SMILES	Potency	activity change, negative = inhibition
CCN(CC)c1nc(N)c2c(N)nc3c(c2c1C#N)CC(c1ccccc1)O3 (stereo unspecified)	active: 10 µM	
CCOC(=O)c1c(NC(=O)CSc2nnnn2C)sc(C)c1C	inconclusive: 10 µM [rising, partial curve]	
CCCOC(=O)c1ccc(-c2c(C)noc2-c2ccc(OC)cc2O)o1		inconclusive: -22.7%
Oc1cccnc1CN1CCCCC1		inactive: -0.13% [at 7.6 µM]
O=C(O)c1cc(-c2ccc3cc4c(cc3c2)OCO4)nc2ccccc12		inactive: 17.1% [at 7.6 µM]
Cc1cc(C)n(-c2nc(NCC(C)O)c3c4c(sc3n2)CCCC4)n1 (stereo unspecified)	inconclusive: 1.26 µM [rising, full curve]	
COc1ccccc1N1CCN(C(=O)c2cc3c(=O)n(C)c4ccccc4c3n2C)CC1	active: 2 µM	
COc1ccccc1N(CC(=O)Nc1c(C)cccc1C)S(C)(=O)=O	inconclusive: 0.02 µM [rising, partial curve, poor fit]	
c1ccc(N2CCN(c3nnc(Cc4cccnc4)c4ccccc34)CC2)nc1	inconclusive: 12.6 µM [rising, single point]	
COc1ccc(-n2c(=O)c(-c3cccs3)nc3cnc(Oc4ccccc4)nc32)cc1		inconclusive: -0.928% [fluorescent]
COc1ccc(C2CC(=O)C3=C(C2)Nc2ccccc2N(C(C)=O)C3c2ccco2)cc1 (stereo unspecified)	inconclusive: 12.6 µM [falling, single point]	
CCOC(=O)N1CCN(c2ccc(S(=O)(=O)N(Cc3ccccc3)Cc3ccccc3)cn2)CC1		inconclusive: 22.7%
O=S(=O)(O)c1ccc2cc(N=Nc3cc(S(=O)(=O)O)c4cccnc4c3O)ccc2c1	inconclusive: 3.98 µM [rising, single point]	
CCc1ccccc1NC1c2ccccc2C(=O)N1c1cccnc1 (stereo unspecified)		inconclusive: -13.2%
Nc1c(C(=O)NCC2CCCO2)c2nc3ccccc3nc2n1-c1ccccc1 (stereo unspecified)	active: 12.6 µM	
Cc1nc(NCc2ccc3c(c2)OCO3)c2oc3ccccc3c2n1	active: 2.51 µM	
CS(=O)CSc1nc2c(cc1C#N)CCCC2 (stereo unspecified)	inactive	
CC1CCN(c2ccc(NC(=O)c3cccnc3)cc2)CC1	inactive	
O=C(c1cccn2c(=O)c3cc(Cl)ccc3nc12)N1CCOCC1		inconclusive: 22.3%
CC(=O)O[C@]1(C(C)=O)CC[C@H]2[C@@H]3C[C@H](C)C4=CC(=O)CC[C@]4(C)[C@H]3CC[C@@]21C	inconclusive: 25.1 µM [rising, single point]	
CC(C)C(=O)Nc1cc(C(F)(F)F)ccc1N1CCOCC1	inconclusive: 2 µM [rising, single point]	

SMILES	Potency	activity change, negative = inhibition
Cc1cc(NC(=O)c2ccc3nc(-c4ccccc4)c(-c4ccccc4)nc3c2)no1		inconclusive: -2.45%
CCc1nc2ccccc2c(C(=O)OCC(=O)NCc2ccco2)c1C	inconclusive: 10 µM [rising, partial curve]	
Cc1ccc2oc(C(=O)NCc3ccc4c(c3)OCO4)c(C)c2c1	inconclusive: 10 µM [rising, single point]	
CC(C)(CS)C(=O)N1CCC[C@H]1C(=O)O	inactive	
NC(=O)c1ccsc1NC(=O)CN1C(=O)C2CC=CCC2C1=O (stereo unspecified)	inactive	
CC(=O)NC12CC3CC(C)(C1)CC(NC(C)=O)(C3)C2		inconclusive: 0.635% [at 7.6 µM]
O=C1CCCC2=C1C(c1ccncc1)c1c(nc(SCc3ccccc3)[nH]c1=O)N2 (stereo unspecified)	inactive	
O=C(O)c1c(Br)c(Br)c(Br)c(Br)c1C1c2ccc(O)cc2Oc2cc(O)ccc21		inactive: 4.42% [at 7.6 µM]
NC(=O)c1c(NC(=O)c2cc3ccccc3o2)sc2c1CCC2		inconclusive: -2.39% [fluorescent]
CC(C)Cc1nc2oc3c(N4CCN(CCO)CC4)ncnc3c2c2c1CCCC2	active: 2 µM	
CCOC(=O)CNC(=O)c1sc2nc(C)cc(C)c2c1N	inactive	
COc1cccc(Cn2c(=O)c(-c3cc(F)cc(F)c3)nc3cnc(N(C)C)nc32)c1	inconclusive: 2.51 µM [rising, partial curve]	
O=C(c1ccco1)N1CCN(C(=O)c2ccc(COc3ccc(F)cc3)o2)CC1		inconclusive: -21.3%
CC(C)Oc1ccc(C(CC(=O)O)NC(=O)CSc2ncn[nH]2)cc1 (stereo unspecified)		inconclusive: -0.457%
Cc1cc(C)c(C(N)=O)c(Nc2cccc(Cl)c2C)n1		inconclusive: 3.1%
CC(C)CNc1cc(=O)n(C)c(=O)n1C		inconclusive: 12.9%
N#Cc1c(-c2ccco2)cc(-c2ccccn2)nc1N	inactive	
CCc1c2c(nc3cccc(SC)c13)COC2	inconclusive: 1.58 µM [rising, partial curve]	
Oc1ccccc1-c1nc(N2CCN(Cc3ccccc3)CC2)c2ccccc2n1	inactive	
O=S(=O)(c1ccccc1)N1C2CCC1CC(O)(c1cccnc1)C2 (stereo unspecified)	inactive	
Cn1c(N)c(S(=O)(=O)c2ccc(Br)cc2)c2nc3ccccc3nc21	active: 15.8 µM	

SMILES	Potency	activity change, negative = inhibition
CS(=O)(=O)Nc1cccc(-c2ccc3ncnc(NCc4cccs4)c3c2)c1	inconclusive: 12.6 µM [rising, partial curve]	
COc1ccccc1OCCCc1c(C)n[nH]c1C	inactive	
COc1ccc(CNc2nc(-c3ccoc3)nc3ccccc23)c(OC)c1	inconclusive: 15.8 µM [rising, single point]	
CS(=O)(=O)c1ccc2nc(NC(=O)C3COc4ccccc4O3)sc2c1 (stereo unspecified)	inconclusive: 5.01 µM [falling, single point]	
COc1ccccc1-c1nc(-c2cccc(C)c2)no1	inactive	
Clc1ccc(-n2ncc3c(NCCN4CCOCC4)ncnc32)cc1	inconclusive: 10 µM [rising, partial curve]	
COC(=O)c1[nH]c2ccccc2c1NC(=O)CCN1CCSCC1	inactive	
Nc1nc2n[nH]nc2c(=O)[nH]1	inconclusive: 3.98 µM [rising, partial curve]	
CC1(C)Cc2c(sc3nc(-c4cccs4)n(N)c(=O)c23)CO1	inactive	
CC(=O)[C@@]1(O)Cc2c(O)c3c(c(O)c2[C@H](O[C@H]2C[C@H](N)[C@H](O)[C@H](C)O2)C1)C(=O)c1ccccc1C3=O	inconclusive: 25.1 µM [falling, partial curve, poor fit]	
O=C1CCC[C@H]1C(=O)Nc1ccc2ccccc2c1		inactive: -3.2% [at 7.6 µM]
O=c1c(-c2cccc(F)c2)nc2cncnc2n1Cc1ccccc1Cl	inconclusive: 12.6 µM [rising, single point]	
CCC[C@@H]1C[C@@]1(CCC)C(NC(=O)c1ccc(-c2ccccc2)cc1)c1cccc(Cl)c1 (stereo partly specified)	inactive	
CCn1c(C)nc2cc(-c3nnc(-c4c(-c5ccccc5)noc4C)o3)ccc21	inconclusive: 2 µM [rising, partial curve]	
Cc1ccc2c(c1)NC(=O)C(CC(=O)NCCCN1CCc3ccccc3C1)O2 (stereo unspecified)	inactive	
CSc1cccc(NC(=O)CN(C)S(=O)(=O)c2ccc(C)cc2)c1	inactive	
O=C(O)CCCC(=O)NCCc1cccc(Cl)c1		inconclusive: 1.01%
Cc1ccc(C2=CSC3=NCCN23)c(C)c1	inconclusive: 5.01 µM [rising, partial curve]	
Cc1ccc(Nc2cc(C)nn2-c2nc(C)cc(=O)[nH]2)cc1	inconclusive: 10 µM [rising, partial curve]	
CCN(CC)C(=O)CSc1nc2ccccc2c(=O)n1CCC(=O)NCc1ccc(F)cc1	inactive	
Cc1cc(NC(=O)Cn2cnc3c(cnn3C(C)(C)C)c2=O)no1		inconclusive: 6.4%

SMILES	Potency	activity change, negative = inhibition
COc1ccc(N2CCN(C(=O)c3cn(C)c(=O)c4c3c3ccccc3n4C)CC2)cc1		inconclusive: 22.8%
C[C@H](O)[C@@H]1C(=O)N2C(C(=O)O)=C(SCCN=CN)C[C@@H]12	inactive	
CCNc1nc2c(c(=O)[nH]c(=O)n2C)n1CC(C)C	active: 10 µM	
O=C(CCN1CCc2ccccc2C1)c1ccc2c(c1)OCCO2		inconclusive: -16.7%
CCC1=C/C(=C\c2ccc3c(c2)OCO3)C(=O)S1		inconclusive: -21.6%
COc1ccccc1N1CCN(c2nc(C)nc3c2oc2ccccc23)CC1	active: 1.58 µM	
O=C(Cc1n[nH]c(=O)c2ccccc12)NCc1ccccn1	inconclusive: 3.98 µM [falling, single point]	
CC(=O)NC(CCS(C)(=O)=O)C(=O)Nc1ccc(F)cc1Cl (stereo unspecified)		inconclusive: -9.84%
CCOCCCn1c(C)nc2c(c1=O)c1nc3ccccc3nc1n2-c1ccc(C)cc1	inactive	
CCOC(=O)NC(NC(=O)OCC)C(=O)c1ccccc1		inconclusive: -6.38%
c1ccc2c(c1)nc(Nc1ccc3c(c1)OCO3)c1nnnn12	inconclusive: 12.6 µM [rising, partial curve, poor fit]	
COc1ccc(CCN(Cc2cc3cc(C)ccc3[nH]c2=O)C(=O)N2CCCC2)cc1OC		inconclusive: 28.5%
O=C(COn1nnc2ccccc21)NCC1CCCCC1	inconclusive: 3.98 µM [falling, single point]	
COc1ccc2c(Cl)c(-c3nnc(SCC(N)=O)n3C)sc2c1	inconclusive: 10 µM [rising, single point]	
COc1ccccc1-c1cncnc1NCc1cccs1	inactive	
Cc1cc(N2CCOCC2)nc2ccc(NC(=O)CCC(=O)N3CCC(C)CC3)cc12	inactive	
Cc1cc(C)nc(/N=c2/ssnc2Cl)c1	inconclusive: 1.58 µM [falling, partial curve]	
CC(C)OCCCNC(=O)CN1CCN(Cc2ccccc2Cl)C1=O	inconclusive: 5.01 µM [rising, single point]	
